Laboratory results taken from the supplement of paper PMC9334596.
“And” between values parts separate entries of the source, which are not always exact repeats. Equal values may be shown once. In all, about 5,300 compounds were measured (“PER2::LUC luminescence relative to vehicle control”: median about 0.96, highest 2% from about 1.3 on). The list shows a part of the results.

Tested on: mPer2Luc MEF
Assay: PER2::LUC luminescence relative to vehicle control (fold of vehicle); higher = higher PER2::LUC reporter signal
Settings: 10 µM
Method in brief: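 The reported values are PER2::LUC luminescence as fold of vehicle control in mouse embryonic fibroblasts carrying the mPer2Luc reporter. Cells were seeded at ~3000 per well in 384-well plates in DMEM with 10% FBS at 37 °C and 5% CO2, and compounds were added at 10 μM 48 h later. ONE-Glo luminescence was read 24 h and 30 h after treatment.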

| SMILES | PER2::LUC luminescence (time after treatment 24 h) | PER2::LUC luminescence (time after treatment 30 h) |
| --- | --- | --- |
| C/C1=C2N=C(/C=C3N=C(/C(C)=C4\[N-]C(C(CC(N)=O)C4(C)CCC(=O)NCC(C)OP(=O)([O-])OC4C(CO)OC(n5cnc6cc(C)c(C)cc65)C4O)C4(C)N=C1C(CCC(N)=O)C4(C)CC(N)=O)C(CCC(N)=O)C\3(C)C)C(CCC(N)=O)C/2(C)CC(N)=O.[CH3-].[Co+3] (centres undefined) | 1.07 | 1.03 |
| O=C1OC(C=Cc2ccccc2)=NC1=Cc1cccnc1 | 1.03 | 1.05 |
| C=CCSSSCC=C | 1.32 | 1.05 |
| COc1ccc2c(c1)OCC(Cc1ccc(OC)c(O)c1)C2=O (centres undefined) | 0.459 | 0.501 |
| COc1ccc(NS(=O)(=O)c2sc3ccc(Cl)cc3c2C)cc1N1CCNCC1 | 0.605 and 0.615 | 0.674 and 0.614 |
| Cc1cc(C(C)(C)C)c(O)c(C(C)(C)C)c1 | 1.16 and 1.18 | 0.828 and 1.01 |
| COc1ccc(-c2cc(=S)ss2)cc1 | 1.31 | 1.16 |
| O=C(O)c1cn(C2CC2)c2cc(N3CCNCC3)c(F)cc2c1=O | 1.06 and 0.782 | 1.19 and 0.813 |
| CCCn1c(=O)[nH]c(=O)c2[nH]cnc21 | 0.891 | 1.03 |
| O[C@H]1CCN2Cc3ccccc3N=C12 | 0.987 | 0.932 |
| C[N+](C)(C)CC=O | 0.974 | 0.958 |
| CCOc1nc2cccc(C(=O)OCc3oc(=O)oc3C)c2n1Cc1ccc(-c2ccccc2-c2noc(=O)[nH]2)cc1 | 0.983 and 1.05 | 1.16 and 1.07 |
| COc1ccc(/C=C/C(=O)c2ccc(O)cc2O)cc1 | 1.51 | 1.56 |
| OC[C@H]1O[C@@H](n2cnc3c(NC4CCCC4)ncnc32)[C@H](O)[C@@H]1O | 0.965 | 0.991 |
| CN1CC(=O)N2[C@H](c3ccc4c(c3)OCO4)c3[nH]c4ccccc4c3C[C@@H]2C1=O | 0.925 and 0.773 | 0.883 and 1.02 |
| C1CCC(C(CC2CCCCN2)C2CCCCC2)CC1 (centres undefined) | 0.213 | 0.32 |
| CCC/C=C\C=C/C(=O)N[C@@H](CC(N)=O)C(=O)NC(CC(N)=O)C(=O)N[C@@H](C(=O)N[C@H](CCCN)C(=O)N[C@@H](C(=O)N[C@@H](C(=O)N[C@@H](C(=O)N[C@H](C(=O)N[C@@H](Cc1ccccc1)C(=O)N[C@H](CCCN)C(=O)NC(C(=O)N[C@H](C(=O)NC(C(=O)NCC(=O)N[C@@H](CC(C)C)C(=O)N[C@H](C)C(=O)NC(C(=O)O)C1CCC(O)C(Cl)C1)C1CCC(O)CC1)[C@H](C)O)C1CCC(O)CC1)[C@H](C)O)C1CCC(O)CC1)C1CCC(O)CC1)[C@H](C)O)C1CCC(O)CC1 (some centres undefined) | 0.82 | 0.849 |
| CCN(C(=O)c1c(O)c2c(Cl)cccc2n(C)c1=O)c1ccccc1 | 1.13 | 1.04 |
| Cc1c(C(=O)NN2CCCCC2)nn(-c2ccc(Cl)cc2Cl)c1-c1ccc(I)cc1 | 0.927 | 0.937 |
| CCc1nc(N)nc(N)c1-c1ccc(Cl)cc1 | 0.455 | 0.493 |
| CC(=O)[C@@]1(O)CC[C@H]2[C@@H]3C[C@H](C)C4=CC(=O)C=C[C@]4(C)[C@@]3(F)[C@@H](O)C[C@@]21C | 0.814 | 1.05 |

| SMILES | PER2::LUC luminescence (time after treatment 24 h) | PER2::LUC luminescence (time after treatment 30 h) |
| --- | --- | --- |
| CC(C)NCC(O)COc1ccc(CCOCC2CC2)cc1 (centres undefined) | 1.11 and 0.927 | 1.2 and 0.945 |
| CC(C)(OCc1nn(Cc2ccccc2)c2ccccc12)C(=O)O | 1.1 | 1.03 |
| Cc1ccc(S(=O)(=O)N[C@@H](Cc2ccccc2)C(=O)CCl)cc1 | 0.449 | 0.743 |
| COc1cc(C(=O)NCc2ccc(OCCN(C)C)cc2)cc(OC)c1OC | 0.611 | 0.898 |
| CCCN1CCCC[C@H]1C(=O)Nc1c(C)cccc1C | 1.14 | 1.1 |
| C[Si](C)(C)CCOCn1ccc2c(-c3cn[nH]c3)ncnc21 | 1.11 | 1.03 |
| O=C(O)C1CC([C@@H]2CCCCN2)CN2CCCCC12 (some centres undefined) | 0.909 | 0.987 |
| Nc1n[n+]([O-])c2ccccc2[n+]1[O-] | 1.36 | 1.15 |
| COc1cccc2oc(-c3ccccc3)cc(=O)c12 | 1.41 | 1.43 |
| C[C@@H]1CC[C@H]2[C@](C)(CO)[C@@H](O)CC[C@]2(C)[C@@]12CC[C@@](CO)(CCO)O2 | 1.09 and 0.993 | 1.04 and 0.968 |
| CC(NC(=O)c1ccccc1/N=C/c1c(O)ccc2ccccc12)c1ccccc1 (centres undefined) | 0.983 | 0.907 |
| Cc1cccc(-c2[nH]c(C(C)(C)C)nc2-c2ccc3c(c2)OCO3)n1 | 0.603 | 0.631 |
| NC1CCN(c2cccc(Cl)n2)CC1 | 0.875 and 0.913 | 0.872 and 0.809 |
| O=C(O)CNC(=O)C(CS)Cc1ccccc1 (racemic) | 0.927 | 1.19 |
| Clc1ccc(C(Cn2ccnc2)OCc2ccsc2Cl)c(Cl)c1 (centres undefined) | 0.634 and 0.877 | 1.24 and 0.92 |
| COc1cc(C(=O)N2CCC(N3CCN(C)CC3)CC2)ccc1Nc1ncc2c(n1)N(C)c1ccccc1C(=O)N2C | 0.091 | 0.094 |
| NC(=O)CCC(N)C(=O)O (racemic) | 0.886 | 1.24 |
| COC(=O)/C=C/c1cccc(N(Cc2ccc(-c3ccc(N(C)C)cc3)cc2)C(=O)C2CCCCC2)c1 | 0.953 | 1.02 |
| C[C@](N)(Cc1ccc(O)c(O)c1)C(=O)O | 0.957 and 0.877 | 0.887 and 0.918 |
| c1cnc(N2CCN(Cc3ccc4c(c3)OCO4)CC2)nc1 | 1.01 and 0.951 and 0.809 | 0.922 and 0.907 and 0.9 |
| CC(C)=CCC[C@](C)(O)[C@H]1CC[C@]2(C)[C@@H]1[C@H](O)C[C@@H]1[C@@]3(C)CC[C@H](O)C(C)(C)[C@@H]3CC[C@]12C | 1.08 | 0.968 |
